Reference: patent US9238631B2, “Radiolabeled amino acids for diagnostic imaging” (PIRAMAL IMAGING SA, priority 2011, dated 2016)
Further values from the same series stand in other lists.

Tested on: NCI-H460 tumor
Experiment: In vivo biodistribution in NCI-H460 tumor bearing mice
Experimental: (§1) To test the pharmacokinetic properties of compounds from the present invention, all F18-labeled compounds were examined by biodistribution studies in NCI-H460 tumor bearing mice. Female NMRI (nu/nu) mice were inoculated with 5×10^6 NCI-H460 tumor cells 8 to 10 days before the biodistribution studies. 185 kBq of activity of the fluorinated compound was injected and at least n=3 mice were used for every time point. After injection of the F18-labeled compound, mice were sacrificed at defined time-points. All organs were removed and radioactivity was determined using a γ-counter.
To compare the tumor uptake and retention of radioactivity of different ^18F-labeled derivatives from the present invention, biodistribution studies were performed in NCI-H460 tumor bearing NMRI (nu/nu) mice as described above.
To compare the kidney clearance of several ^18F-labeled derivatives from the present invention, biodistribution studies were performed in NCI-H460 tumor bearing female NMRI (nu/nu) mice as described above. […] After 2 h p.i., less than 1% ID/g can be found in the kidneys.
For comparison of pancreas uptake and clearance of several ^18F-labeled derivatives from the present invention, biodistribution studies were performed in NCI-H460 tumor bearing NMRI (nu/nu) mice as described above. […] After 2 h p.i., less than 2% ID/g can be found in the pancreas.
as §1, with “and” for “for every time point. After injection of the F18-labeled compound, mice were”, “time-points raning from 15 min pi up to 2 h p.i.” for “time-points.”, “γ-counter. […] High tumor uptake values of >3% ID/g were obtained with various compounds from the present invention.” for “γ-counter.”

Kidney (% ID/g at 1 h p.i.) (1 h p.i.): 2.2 ± 0.3 % ID/g
Liver (% ID/g at 1 h p.i.) (1 h p.i.): 2.2 ± 0.3 % ID/g
Pancreas (% ID/g at 1 h p.i.) (1 h p.i.): 3.6 ± 0.6 % ID/g
Tumor (% ID/g at 1 h p.i.) (1 h p.i.): 6.5 ± 1.0 % ID/g
Kidney (% Dosis/g) (timepoint 0.25 h): 18.02 % Dosis/g
Lung (% Dosis/g) (timepoint 0.25 h): 1.45 % Dosis/g
Kidney (% Dosis/g) (timepoint 0.5 h): 8.61 % Dosis/g
Lung (% Dosis/g) (timepoint 0.5 h): 0.91 % Dosis/g
Kidney (% Dosis/g) (timepoint 1.0 h): 2.11 % Dosis/g
Lung (% Dosis/g) (timepoint 1.0 h): 0.36 % Dosis/g
Kidney (% Dosis/g) (timepoint 2.0 h): 0.64 % Dosis/g
Lung (% Dosis/g) (timepoint 2.0 h): 0.26 % Dosis/g
Kidney (% Dosis/g) (timepoint 4.0 h): 0.20 % Dosis/g
Liver (% Dosis/g) (timepoint 4.0 h): 0.33 % Dosis/g
Lung (% Dosis/g) (timepoint 4.0 h): 0.13 % Dosis/g
SMILES: N[C@@H](CCC(Cc1ccc(OCC[18F])cc1)C(=O)O)C(=O)O (stereo partly drawn) [[^18F]-12] [(2S)-2-Amino-5-[4-(2-[^18F]fluoroethoxy)benzyl]hexanedioic acid]
